According to PubChem BioAssay AID588342 (National Center for Advancing Translational Sciences (NCATS), 2011):
Among all 360,000 compounds or so, about 25,000 (6.9%) were called active. The inconclusive results got no clear call from the source; some entries with a clear call stand among them for comparison. The call rests on the fitted dose curve; in most records, active means well fitted inhibition curve with a large enough effect; inconclusive means small, poorly fitted or top-dose-only effect; inactive means flat fitted curve, though single readings scatter. Potencies beside an inconclusive call are fits to weak or partial responses and may not hold up.

target: Luciferin 4-monooxygenase (Photinus pyralis) (UniProt P08659); assay: qHTS profiling assay for firefly luciferase inhibitor/activator using purifed enzyme and Km concentrations of substrates (counterscreen for miR-21 project); conditions: purified FLuc, luminescence inhibition; series mostly up to 57.5 µM; further: nearly all actives have a fitted effect of over 55% in size
Sequence of UniProt P08659 (P08659 whole entry, looked up): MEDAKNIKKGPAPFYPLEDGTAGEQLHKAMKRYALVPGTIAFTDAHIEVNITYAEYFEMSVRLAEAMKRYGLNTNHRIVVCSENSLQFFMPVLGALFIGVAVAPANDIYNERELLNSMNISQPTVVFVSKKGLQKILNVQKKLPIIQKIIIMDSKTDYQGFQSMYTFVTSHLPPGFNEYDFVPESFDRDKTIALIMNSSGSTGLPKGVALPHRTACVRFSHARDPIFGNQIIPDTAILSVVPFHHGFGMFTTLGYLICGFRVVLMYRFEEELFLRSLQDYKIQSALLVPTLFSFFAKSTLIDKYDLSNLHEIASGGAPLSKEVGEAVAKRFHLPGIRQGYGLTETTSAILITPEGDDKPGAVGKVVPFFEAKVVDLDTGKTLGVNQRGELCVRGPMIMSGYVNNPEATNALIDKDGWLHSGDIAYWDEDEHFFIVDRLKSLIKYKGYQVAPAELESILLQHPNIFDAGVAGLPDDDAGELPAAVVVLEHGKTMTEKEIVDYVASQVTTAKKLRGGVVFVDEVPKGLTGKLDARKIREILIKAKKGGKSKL
Method in brief: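 Purified P. pyralis luciferase, 10 nM final, with Km-level 10 uM D-luciferin and 10 uM ATP in 50 mM Tris acetate pH 7.5, 10 mM Mg acetate, 0.01% Tween-20, 0.05% BSA; 6-point qHTS titration about 60 µM downward; luminescence read.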
Potency means the concentration at half of the fitted maximal effect; tags describe the fitted curve by direction and shape.

SMILES	Potency
Cc1nn(-c2ccc(C(=O)O)cc2)c(C)c1Oc1ccccc1O	inconclusive: 33.8 µM [inhibitor, single point]
O=C(NCc1ccccn1)Nc1cccc(Cl)c1Cl	inconclusive: 37.9 µM [inhibitor, partial curve, poor fit]
CC(C)c1ccc(NC(=S)NCc2ccc3c(c2)OCO3)cc1	inconclusive: 23.9 µM [inhibitor, partial curve, poor fit]
Cc1ccc2c(CC(=O)NCc3cccs3)coc2c1	inconclusive: 26.9 µM [inhibitor, single point]
Brc1cc2c(cc1Br)OCCOCCOCCO2	inactive
COc1cc(C)ccc1OCC(=O)OCC(=O)c1cc(C)n(CC2CCCO2)c1C (stereo not given)	inconclusive: 26.9 µM [inhibitor, partial curve, poor fit]
COc1cccc(Nc2nc3ccc(C(=O)c4ccccc4)cc3n3c(C)nnc23)c1	inactive
CCOc1ccccc1N(CC(=O)NCCOC)C(=O)CCC(=O)Nc1ccccn1	inconclusive: 0.0107 µM [inhibitor, partial curve, poor fit]
CC(=O)c1ccc(N2CCN(C(=O)C3CCN(S(=O)(=O)c4c(C)noc4/C=C/c4ccccc4F)CC3)CC2)cc1	inactive
O=c1c2c3c(sc2n(Cc2ccc(F)cc2Cl)c(=O)n1-c1ccc(Cl)cc1)CCC3	inactive
O=C(CSc1nnc(NC(=O)c2ccccc2F)s1)NCC1CCCO1 (stereo not given)	active: 12 µM
COc1cccc(/C=N/Nc2cc(Cl)nc(C)n2)c1O	active: 3.01 µM
Cc1cccc(C(=O)NNC(=S)NC(=O)c2cccs2)c1	inconclusive: 26.9 µM [inhibitor, partial curve, poor fit]
CCCc1cc(C(=O)Nc2cc(OC)ccc2OC)cs1	active: 19 µM
CC1CCN(c2c(NCc3ccc(C(=O)N(C)C4CCCCC4)cc3)c(=O)c2=O)CC1	inconclusive: 37.9 µM [inhibitor, partial curve, poor fit]
CC(=O)NN1C(=O)/C(=C\c2ccc(C)cc2)SC1=S	inconclusive: 23.9 µM [inhibitor, single point]
CCN(CC)C(=O)Cn1cc(S(=O)(=O)CC(=O)Nc2ccc3c(c2)OCCO3)c2ccccc21	inconclusive: 37.9 µM [inhibitor, partial curve, poor fit]
CCOc1ccc2[nH]c(S(=O)(=O)CC)nc2c1Cl	inconclusive: 37.9 µM [inhibitor, partial curve, poor fit]
Cc1ccc(C(=O)Nc2ccc3[nH]c(=O)c(=O)[nH]c3c2)cc1	inconclusive: 37.9 µM [inhibitor, partial curve, poor fit]
CCC(c1nnc(SCC(=O)NC2CCCCC2)n1Cc1ccccc1)N(C)C (stereo not given)	inactive
Cc1c(/C=N/NC(=O)c2ccccc2O)c2ccccn2c1C(=O)c1ccc(F)cc1	active: 13.5 µM
Cc1ccc(CONC(=O)c2ccccc2)cc1	active: 15.1 µM
CSc1c(-c2ccccn2)c(N)nn1C(=O)C1CCC1	inconclusive: 21.3 µM [inhibitor, single point]
O=C(CSc1nnc2scc(-c3ccccc3)n12)Nc1nsc(-c2ccccc2)n1	inactive
Cc1ccc(C2CCN(C(=O)Nc3ccc(C)c(C)c3)C2)cc1 (stereo not given)	active: 12 µM

SMILES	Potency
O=C(Nc1ccccc1)Nc1ccc(F)cc1F	active: 12 µM
Cc1nc2ccccn2c1C(=O)N/N=C/c1ccc(CNC(=O)C(=O)Nc2ccccc2)o1	active: 19 µM
CCS(=O)(=O)N1CCc2cc(C(=O)NCCc3ccc(OC)c(OC)c3)ccc21	inactive
CCc1c(C)nc2cc(-c3ccc(OC)c(OC)c3)nn2c1N1CCCC1	inconclusive: 23.9 µM [inhibitor, partial curve, poor fit]
CCOc1ccc(-n2ccnc(SCC(=O)Nc3ccc(CC)cc3)c2=O)cc1	inconclusive: 26.9 µM [inhibitor, single point]
N#Cc1c(NC(=O)CCCC(=O)O)sc2c1CCCCC2	active: 2.13 µM
Cc1nc2cc(NC(=O)N(C)c3ccc4ccccc4c3)ccc2o1	inconclusive: 23.9 µM [inhibitor, partial curve, poor fit]
CCCCC(=O)N1CCN(c2nc3ccc(OCC)cc3s2)CC1	active: 13.5 µM
COc1ccccc1NC(=O)N1CCC(c2nc3cc(C)c(C)cc3[nH]2)CC1	inconclusive: 26.9 µM [inhibitor, partial curve, poor fit]
O=C(CCC(=O)c1cccs1)OCC(=O)c1ccc(Cl)s1	inconclusive: 26.9 µM [inhibitor, single point]
O=C(COC(=O)c1c2c(nc3ccccc13)CCCC2)Nc1ccc2c(c1)OCO2	inconclusive: 37.9 µM [inhibitor, single point]
CCn1c(SC)nc2cc(S(=O)(=O)N3CCCCC3)ccc21	inactive
Cc1ccc(Nc2nc3ccccc3n3nnnc23)cc1	inconclusive: 30.1 µM [inhibitor, single point]
Cc1ccccc1NC(=O)CN1C(=O)C(C)(C)c2ccccc21	inactive
CCCCNC(=O)c1cnn2c(C)c(Cc3c(F)cccc3Cl)c(C)nc12	inactive
C=CCN=C1NN=C(c2cc(C)n(CCOC)c2C)CS1	active: 0.379 µM
c1ccc(C[n+]2csc3ccccc32)cc1	inconclusive: 8.49 µM [inhibitor, partial curve]
Cc1ccc(CNC(=O)C2CCN(S(=O)(=O)c3ccc4c(c3)CCCN4C(=O)C3CCC3)CC2)cc1	inactive
O=C(Cc1cccc2ccccc12)NC(=S)Nc1cccc(C(=O)O)c1	inconclusive: 19 µM [inhibitor, single point]
COc1ccc(CNC(=O)C(NC(C)=O)C(=O)Nc2ccc(C(C)C)cc2)cc1 (stereo not given)	inactive
O=C(Cn1cc(C(F)(F)F)ccc1=O)NCc1ccc(F)cc1	inconclusive: 30.1 µM [inhibitor, partial curve, poor fit]
COc1cc(/C=N/Nc2cccc3cccnc23)cc(OC)c1O	active: 2.69 µM
Brc1ccc(-c2nc3ncccn3c2Nc2ccc3c(c2)OCCO3)o1	inconclusive: 23.9 µM [inhibitor, single point]
CC(COc1ccc(/C=C/c2ccccc2)cc1)[N+](C)(C)C (stereo not given)	inconclusive: 21.3 µM [inhibitor, partial curve, poor fit]
O=C(O)c1cc(-c2ccc(C(F)(F)F)cc2)nc2n[nH]c(-c3ccccc3)c12	active: 3.01 µM

SMILES	Potency
CC1CCc2c(C(=O)Oc3cccc(-n4cnnn4)c3)csc2C1 (stereo not given)	inconclusive: 23.9 µM [inhibitor, single point]
CC(=O)c1ccc(NC(=O)Cn2cc3c(n2)CCCC3)cc1	inactive
Cc1ccc(N2CC(NC(=O)N3CCN(C(=O)c4ccco4)CC3)CC2=O)cc1 (stereo not given)	inactive
Cn1nc(C(=O)NC2CCCCC2)c2c1-c1ccccc1SC2	inconclusive: 26.9 µM [inhibitor, partial curve, poor fit]
O=C(O)c1cc2nc(-c3cccs3)cc(C(F)(F)F)n2n1	inactive
COc1ccccc1C(=O)Nc1nnc(S(=O)(=O)N(C)c2ccc(Cl)cc2)s1	inactive
Cc1nc2ccccc2c(=O)n1/N=C/c1ccccc1Cl	active: 10.7 µM
COc1cccc(OC)c1C(=O)Nc1ccc(S(=O)(=O)Nc2nccc(C)n2)cc1	inactive
O=C(Nc1ccn(Cc2ccccc2)n1)c1cccc(Cn2cc([N+](=O)[O-])cn2)c1	active: 15.1 µM
CCOc1ccc(Nc2nc(N3CCCC3)nc(N3CCN(c4ccc(OC)cc4)CC3)n2)cc1	inactive
COC(=O)c1ccc(C(=O)N=c2sccn2C)cc1	active: 15.1 µM
Cc1ccc(NC(=O)c2c(C)nc3sc(C(=O)Nc4ccc(F)cc4)c(N)c3c2-c2ccccc2Cl)c(C)c1	inactive
CCc1noc(C)c1C(=O)NCCN1C(=O)S/C(=C\c2ccc(OC)cc2)C1=O	inconclusive: 10.7 µM [inhibitor, partial curve]
Cc1cccc2c1NC(=O)C21N2CCCC2C(C(=O)c2ccc3ccccc3c2)C12C(=O)Nc1ccccc12 (stereo not given)	inconclusive: 23.9 µM [inhibitor, partial curve]
Cc1ccc(N(Cc2cccs2)C(=O)COc2cccc(C)c2)cc1	inconclusive: 37.9 µM [inhibitor, partial curve, poor fit]
O=C1c2ccccc2NC(c2ccc3c(c2)OCO3)N1O (stereo not given)	inactive
Cc1cc(NC(=O)NC(=O)c2cccc(OC(F)(F)C(F)F)c2)n[nH]1	inactive
CCN1C(=O)/C(=C/c2ccc(C)o2)N(C)C1=S	inactive
COc1ccc(S(=O)(=O)N2CCOCC2)cc1NC(=O)CSc1nnc2c(n1)[nH]c1ccccc12	inconclusive: 13.5 µM [inhibitor, partial curve, poor fit]
CCN1CCN(c2cc(C)c3cc(NC(=O)c4cc(Cl)ccc4OC)ccc3n2)CC1	inconclusive: 23.9 µM [inhibitor, single point]
C=CCNc1nc2c3ccccc3n(C(C)=O)c2s1	active: 23.9 µM
CCc1ccc(-c2csc(NC(=O)c3cccnc3)n2)cc1	inconclusive: 10.7 µM [inhibitor, partial curve]
CC(C)(C)c1ccc(-c2nc3cc(N)ccc3o2)cc1	active: 0.426 µM
CN(C)S(=O)(=O)c1cccc(C(=O)Nc2cc(Cl)ccc2O)c1	active: 13.5 µM
O=C(CSC1=Nc2ccccc2C2CC=NN12)Nc1ccc2c(c1)OCO2 (stereo not given)	inconclusive: 23.9 µM [inhibitor, partial curve, poor fit]
